Laboratory results taken from publication PMC12107103 (Proceedings of the National Academy of Sciences of the …, 2025).

Target: T1, Protein Arginine Methyltransferase-5 (human, UniProt O14744)
T1 construct: PRMT5 (Protein Arginine Methyltransferase-5), as crystallised in the PRMT5/MEP50 complex with MTA and AM-9934; also called PRMT5; source: baculovirus expression system, as PRMT5/MEP50 protein complex, according to literature procedures (26)
Experiment: crystal structure; PRMT5/MEP50 protein complex at 13.5 mg/mL mixed with MTA and AM-9934 (1:1.2:1.2), sitting drop vapor diffusion at 8 °C; 3.1 Å resolution
Settings: both partners purified

Chain of Protein Arginine Methyltransferase-5 (O14744 whole entry, the tested form may be a part): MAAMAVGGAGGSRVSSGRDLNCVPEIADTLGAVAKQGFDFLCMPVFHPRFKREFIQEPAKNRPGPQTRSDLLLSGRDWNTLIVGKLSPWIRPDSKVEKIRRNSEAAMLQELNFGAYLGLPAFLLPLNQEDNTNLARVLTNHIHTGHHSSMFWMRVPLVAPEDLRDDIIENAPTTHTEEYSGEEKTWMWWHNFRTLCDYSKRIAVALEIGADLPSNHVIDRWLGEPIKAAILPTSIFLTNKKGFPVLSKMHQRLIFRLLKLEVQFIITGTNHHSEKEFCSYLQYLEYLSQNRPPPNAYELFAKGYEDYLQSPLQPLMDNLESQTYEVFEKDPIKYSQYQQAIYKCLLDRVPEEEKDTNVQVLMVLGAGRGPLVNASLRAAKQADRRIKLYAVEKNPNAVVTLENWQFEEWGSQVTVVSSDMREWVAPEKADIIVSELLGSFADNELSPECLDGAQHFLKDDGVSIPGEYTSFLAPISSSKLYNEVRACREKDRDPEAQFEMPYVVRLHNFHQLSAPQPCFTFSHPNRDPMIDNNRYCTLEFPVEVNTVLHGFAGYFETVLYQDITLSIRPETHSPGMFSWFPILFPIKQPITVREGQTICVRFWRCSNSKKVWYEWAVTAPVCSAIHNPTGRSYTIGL

B1: methylosome protein 50 (natural protein)
chain: not shown
notes: MEP50 (methylosome protein 50), as crystallised in the PRMT5/MEP50 complex with MTA and AM-9934; also called MEP50; source: baculovirus expression system, as PRMT5/MEP50 protein complex, according to literature procedures (26)
Does B1 bind?
Result: binds
